Laboratory results from the RNAGym collection of RNA variant scans (doi:10.1073/pnas.2313332121).
This sample is rich in variants without activity.

B1: TPR 5TU (parent)
chain: GGAUCUUCUCGAUCUAACAAAAAAGACAAAUCUGCCACAAAGCUUGAGAGCAUCUUCGGAUGCAGAGGCGGCAGCCUUCGGUGGCGCGAUAGCGCCAACGUUCUCAACUAUGACACGCAAAACGCGUGCUCCGUUGAAUGGAGUUUAUCAUG

Variants of: B1
Assay: polymerase ribozyme fitness, log enrichment relative to wild type (log ratio); higher = more active; in vitro selection for triplet polymerase activity
How it was run: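 Mutant libraries of each subunit of a heterodimeric triplet polymerase ribozyme were built by PCR and transcribed. Each library went through one round of in vitro selection in triplicate: annealing with biotinylated primer, partner subunit and triplets, frozen incubation at −7 °C, gel excision of extended constructs, streptavidin-bead capture and RT-PCR. Input and output libraries were Illumina-sequenced; only genotypes with ≥10 input reads and ≥1 read per output were kept. Fitness is log2(genotype enrichment/wild-type enrichment), using inverse-variance-weighted replicate averages.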

Row | Variant | polymerase ribozyme fitness (log ratio)
1 | GGAUCUUCUCGAUCUAACAAAAAAGACAAAUCUGCCACAGAGCUUGAGAGCCACAUCAGAUGCAGAGGCGGCAGCCUUCGGUGGCGCGAUAGCGCCAACGUUCUCAACUAUGACACGCAAAACGGGUGCUCCGUUGAAUGGAGUUUAUCAUG | ≤ -4.2
2 | GGAUCUUCUCGAUCUAACAAAAAAGACAAAUCUGCCACAGAGCUUGAGAGCAUUUUCGGAUGCAGAGGCGGCCGCCUUCGGUCGCUCGAUAGCGCCAACGGUCUCAACUAUGGCACGAAAAACGCGUGCUCCGUUGAAUGGAGUUUAUCAUG | ≤ -4.2
3 | GGAUCUUCUCGAUCUAACAAAAAAGACAAAUCUGCCACAGAGCUUGAGAGCAUUUUCGGAUGCAGAGGCGGCAGCCUGCGGUGGCGCGAGAGGGCCAACGUUCUCAACUAUGACACGCAAAAAGCGUGCUCCGUUGAAUGGAGUUUAUCAUG | ≤ -4.2
4 | GGAUCUUCUCGAUCUAACAAAAAAGACAAAUCUGCCACAGAGCUUGAGAGCAUCUUCCGAUGCAGAGGCGGCAGCCUUCGGUGGCGCGAUAGCACCAACGUUCUCAACUAUGACACGCAAAACGCGUGCUCCGUUGAAUGAAGUUUAUCAUG | -3.65
5 | GGAUCUUCUCGAUCUAACAAAAAAGACAAAUCUGCCACAGAGUUUGAGACCAUCUUCGGAUGCAGAGGCGGCAGCCUUCGGUGGCGCGAUAGCGCCAACAUUCUCUACUAUGACACGCAAAACGCGUGCCCCGUUGAAUGGAGUUUAUCAUG | ≤ -4.2
6 | GGAUCUUCUCGAUCUAACAAAAAAGACAAAUCUGCCACAGAGCUUGAGAGCAUCUUCGGAUGCAGAGGCGGCAGCCUUCGGUGGCGCGAUAGUGCCAAUGUUCUCAACUAUGACACGCAAAACGCGUGCUCCGUUGAAUGGAGUUUAUCAUG | -4.16
7 | GGAUCUUCUCGAUCUAACAAAAAAGACAAAUCUGCCACAGAGCUUGAGAGCAUCUUCGGAUGCAGAGGCGGCAGCCUUCGGUGGCGCGAUAGAGCCAACGUUCUCAACUAUGACACGCAAAACGCGUGCUCCGUUUAAUGGAGUUUAUCAUG | ≤ -4.2
8 | GGAUCUUCUCGAUCUAACAAAAAAGACAAAUCUGCCACAGAUCUUGAGAGCAUCUUCGGAUGCAGAGGCGGCAGCCUUCGGUGGCGCGAUAGCGCCAACGUUGUCAACUAUGACACGCAAAACGCGUGCUCCGUUGAAUGGAGUUUAUCAUG | ≤ -4.2
9 | GGAUCUUCUCGAUCUAACAAAAAAGACAAAUCUGCCACAGAGCUUGAGAGCAUCUUUGGAUGCAGAGGCGGCAGCCUUCGGUGGCGCGAUAGCGCCAACGUUCUCAACUAGGACACGCAAAACGCGUGCUCCGUUGAAUGGAGUUCAUCAUG | ≤ -4.2
10 | GGAUCUUCUCGAUCUAACAAAAAAGACAAAUCUGCCACAGAGCUUGAGAGCAUCUUCGGAUGAAGAGGCGGCAGCCUUCGGUGGCGCGAGAGCGCCAACGUUCUCAACUAUGACACGCAAAACGCGUGCUCCGGUGAAUGGAGUUUAUCAUG | ≤ -4.2
11 | GGAUCUUCUCGAUCUAACAAAAAAGACAAAUCUGCCACAGAGCUUGAGAGCAUCUUCGGAUGCAGAGGCGGCAGCCUUCGGUGGGGCGAGAGCGCCAAUGUUCUCAACGAUGACACGCAAAACGCGUGCUCCGUUGAAUGGAGUUUAUCAUG | ≤ -4.2
12 | GGAUCUUCUCGAUCUAACAAAAAAGACAAAUCUGCCACAGAGCUUGAGAGCAUAUUCGGAUGCAGAGACGGCAGCCUUCGGUGGCGCGAUAACGCCAACGUUCUCAACUAUGACACGCAAAACGCGUGCUCCGUUGAAUGGAGUUUAUCAUG | ≤ -4.2
13 | GGAUCUUCUCGAUCUAACAAAAAAGACAAAUCUGCCACAGAGCUUGAGAGCAUGUUCGGAUGCAGAGGCGGCAGCCUUCGGUGGCGCGAUAGCGCCAACGUUCUCAACUAUGACACGCAAAACGCAUGCUCCGUUGAAUGGAGUUUAUCAUG | -3.46
14 | GGAUCUUCUCGAUCUAACAAAAAAGACAAAUCUGCCACAGAGCUUGAGAGCGUCUUCGGAUGCAUAGGCGGCAGCCUUCAGUGGCGCGAUAACGACAACGUUCUCAACUAUGACACGCAAAACGCGUGCUCCGUUGAAUGGCGUUUAUCAUG | ≤ -4.2
15 | GGAUCUUCUCGAUCUAACAAAAAAGACAAAUCUGCCACAGAGCUUGAGAGCAUCUUCGGAUGCAGAGGCGGCAGCCUUCGGUGGCGUGAUAGUGCCACCGUUCUCAACUAUGACACGCAAAACGCGUGCUCCGUUAAAGGCAGUUUAUCAUG | ≤ -4.2
16 | GGAUCUUCUCGAUCUAACAAAAAAGACAAAUCUGCCACAGAGUUUGAGAGCAUCUUCGGAUGCAGAGGCGGCAGCCUUCGGUGGCGCGAUAGCGCCAACGUUCUCAACUAUGACACGCAAAACGGGUGCUCCUUUGAAUGGAGUUUAUCAUG | ≤ -4.2
17 | GGAUCUUCUCGAUCUAACAAAAAAGACAAAUCUGCCACAGAGCUUGAGAGCAUUUUCGGAUGCAGAGGCGGCAGCCUUCGGUGGCGCGAUAGCGCUAACGUUCUCAACUAUGACACGCAAAACGCGUGCUCCGUUGAAUGUAGUUUAUCAUG | -2.2
18 | GGAUCUUCUCGAUCUAACAAAAAAGACAAAUCUGCCACAGAGCUUGAGAGCAUCUUCGGAUGCAGAGGCGGCAGCCUUCGGUGGCGCGAUAGCGCCAACGUUCUCCACUAUGACACGCAAAACGCGUGCUCCGUUGAGUGGAGUUUAUCAUG | ≤ -4.2
19 | GGAUCUUCUCGAUCUAACAAAAAAGACAAAUCUGCCACAGAGCUUGAGAGCAUCUUCGGAUGCAGAGGCGGCAGCCUUCGGUGGCGAGAUAGCGCCAACGUUCUCAACUAUGACACGCAAAACGCGUGCUCCGUUGAAUGGAGUUUAUCAUG | ≤ -4.2
